Assay results taken from ChEMBL document CHEMBL5724801, “EUbOPEN Chemogenomics Library - Multiplex” (2024).

Tests used:
Format in all cases: toxicity, cell-based
[1] = tested on: Fibroblast; test: Multiplex assay against human fibroblast
Summary of the method: (§1)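 On a CQ1 microscope at 37°C and 5% CO2, live cells were imaged after compound addition. They had been stained at seeding with Hoechst33342, BioTracker Green Microtubule Cytoskeleton Dye, MitoTracker Red and Annexin V Alexa Fluor 680. CellPathfinder machine-learning gating assigned cells to Hoechst high-intensity objects or normal cells, normal cells to healthy, pyknosed or fragmented nuclei, and pyknosed cells to mitotic or apoptotic. Tubulin, mitochondrial-mass and membrane-permeability phenotypes are per cents of healthy-nucleus cells.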

[2] = tested on: U2OS; test: Multiplex assay against U2OS; conditions: human; summary of the method: as §1
[3] = tested on: HEK-293T; test: Multiplex assay against HEK293T; conditions: human; summary of the method: as §1
[4] = 12 h, 10 µM, compound concentration 10 uM
[5] = 48 h, 1 µM, compound concentration 1 uM
[6] = 12 h, 1 µM, compound concentration 1 uM
[7] = 24 h, 1 µM, compound concentration 1 uM
[8] = 48 h, 10 µM, compound concentration 10 uM
[9] = 24 h, 10 µM, compound concentration 10 uM

Row | SMILES | Population Apoptotic (%) [1, 5] | Population Mitochondria Different-Phenotype (%) [2, 4] | Total Cell Count [2, 7] | Total Cell Count [2, 5] | Population Mitochondria Different-Phenotype (%) [3, 4] | Population Tubulin-Different-Phenotype (%) [3, 4] | Population Healthy Nuclei (%) [3, 7] | Population Mitochondria Different-Phenotype (%) [3, 9] | Population Tubulin-Different-Phenotype (%) [3, 5] | Total Cell Count [3, 5] | Population Tubulin-Different-Phenotype (%) [3, 8] | Population Apoptotic (%) [1, 6] | Population Apoptotic (%) [1, 7] | Population Mitochondria Different-Phenotype (%) [2, 9] | Population Mitochondria Different-Phenotype (%) [2, 8] | Total Cell Count [2, 8] | Population Healthy Nuclei (%) [3, 6] | Total Cell Count [3, 7] | Population Pyknosed Nuclei (%) [3, 5] | Population Tubulin-Different-Phenotype (%) [3, 6] | also measured
1 | N#Cc1ccnc(Nc2cc(C3CCN(C4COC4)CC3)cc(N3CCC(F)(F)C3)n2)c1 | 7.14% and 42.42% | 11% and 60% | 499 and 146 | 703 and 201 | 35.19% and 0% | 72.22% and 19.44% | 42.39% and 13.39% | 59.57% and 15.91% | 9.85% and 72.73% | 442 and 144 | 55% and 17.86% | – | – | – | – | – | – | – | – | – | Population Membrane Permeable-Phenotype (%) [1, 4]: 3.8% and 22.81%; Total Cell Count [2, 6]: 383 and 127; Population Membrane Permeable-Phenotype (%) [2, 8]: 2.3% and 13.85%; Population Mitochondria Different-Phenotype (%) [3, 6]: 34.62% and 10.53%; Population Membrane Permeable-Phenotype (%) [3, 4]: 1.85% and 27.78%; Population Tubulin-Different-Phenotype (%) [3, 9]: 70.21% and 13.64%; Population Apoptotic (%) [3, 5]: 30.61% and 9.2%; Population Mitochondria Different-Phenotype (%) [3, 8]: 75% and 14.29%
2 | C=CC(=O)Nc1cc(Nc2nccc(-n3cc(CN(C)C)c(-c4ccccc4)n3)n2)c(OC)cc1N1CCOCC1 [LAZERTINIB] | – | 19.03% and 73.02% | – | 534 and 160 | – | – | 66.59% and 17.21% | 82.35% and 0% | 3.28% and 68.97% | 888 and 141 | 25.85% and 80% | 2.7% and 15.91% | 10% and 47.37% | 16.79% and 73.21% | 12.85% and 55.88% | 486 and 113 | 43.77% and 14.05% | 442 and 122 | 14.43% and 53.24% | – | Population Fragmented Nuclei (%) [1, 9]: 19.21% and 6.4%; Population Pyknosed Nuclei (%) [1, 9]: 43.05% and 12.07%; Population Mitochondria Different-Phenotype (%) [1, 8]: 53.42% and 14.41%; Population Pyknosed Nuclei (%) [1, 8]: 23.94% and 7.23%; Total Cell Count [1, 8]: 142 and 429; Population Mitochondria Different-Phenotype (%) [2, 6]: 1.06% and 41.75%; Total Cell Count [2, 4]: 391 and 104; Population Mitochondria Different-Phenotype (%) [2, 7]: 6.13% and 51.89%; Total Cell Count [2, 9]: 406 and 103; Population Membrane Permeable-Phenotype (%) [2, 5]: 7.51% and 26.97%; Population Mitochondria Different-Phenotype (%) [2, 5]: 2.58% and 38.2%
3 | Cn1ncnc1COc1nn2c(-c3cc(F)ccc3F)nnc2cc1C(C)(C)C | 31.58% and 8.7% | 0.34% and 11.85% | 627 and 199 | 1079 and 324 | 36.89% and 9.09% | – | 70.09% and 18.3% | – | 2.65% and 46.43% | 1095 and 177 | 10.91% and 58.93% | – | 5.88% and 39.13% | – | – | – | 44.34% and 9.42% | 468 and 153 | 11.69% and 49.43% | 7.09% and 38.46% | Population Fragmented Nuclei (%) [1, 4]: 15.7% and 4.9%; Population Tubulin-Different-Phenotype (%) [1, 5]: 2.8% and 21.59%; Population Healthy Nuclei (%) [3, 9]: 69.39% and 19.01%; Total Cell Count [3, 8]: 627 and 208
4 | O=C1CSC(=O)N1C(CCc1ccncc1)COc1ccc(-c2cccc([N+](=O)[O-])c2)cc1 (configuration not stated) | – | – | – | – | – | – | 62.14% and 17.97% | – | 2.59% and 39.06% | 749 and 138 | – | – | – | 27.67% and 87.62% | 11.53% and 58.88% | 545 and 170 | 46.54% and 8.82% | 385 and 128 | 15.22% and 48.55% | 12.4% and 41.67% | Population Apoptotic (%) [1, 8]: 38.1% and 12.5%; Population Tubulin-Different-Phenotype (%) [3, 7]: 33.19% and 8.7%; Population Healthy Nuclei (%) [3, 8]: 42.79% and 10.92%
5 | COc1cc(/C=C(\C#N)C(=O)Nc2nnc(C(F)(F)F)s2)ccc1OCc1ccc(C(F)(F)F)cc1C(F)(F)F | – | – | – | 1038 and 316 | – | 5.95% and 26.09% | – | 15.79% and 3.8% | 2.04% and 51.85% | 1088 and 197 | 0.8% and 18.55% | 2.5% and 35% | – | – | – | – | 53.56% and 12.08% | – | 12.42% and 40.72% | 6.96% and 38.89% | Population Fragmented Nuclei (%) [1, 6]: 21.43% and 5.94%; Population Apoptotic (%) [1, 8]: 0% and 50%; Population Tubulin-Different-Phenotype (%) [1, 8]: 4.74% and 18.27%; Population Healthy Nuclei (%) [3, 4]: 56.57% and 16.31%; Population Apoptotic (%) [3, 8]: 11.21% and 36.73%; Total Cell Count [3, 8]: 1266 and 284

For part of its entries the source gives two or more results. This list holds those alone. The source may hold further records. Values that stand side by side are repeats (runs, samples, wells, individuals or studies).
